{"source": "the BET-seq Pho4 binding data (Le et al. 2018)", "note": "This is one part of the list. Values were computed here from the reads of four pooled replicates and scatter widely.", "data": [{"target": "T1, Pho4 (S. cerevisiae) (UniProt P07270)", "T1 sequence": "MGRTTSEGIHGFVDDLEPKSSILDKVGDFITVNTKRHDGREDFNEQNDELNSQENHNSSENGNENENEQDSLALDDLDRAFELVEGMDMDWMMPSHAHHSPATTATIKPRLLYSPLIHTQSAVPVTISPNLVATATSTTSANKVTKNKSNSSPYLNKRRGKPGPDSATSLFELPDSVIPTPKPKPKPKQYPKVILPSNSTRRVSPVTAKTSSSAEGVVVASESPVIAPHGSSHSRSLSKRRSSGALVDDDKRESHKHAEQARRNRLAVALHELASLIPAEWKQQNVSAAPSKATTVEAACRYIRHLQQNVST", "assay": "relative binding free energy (BET-seq); higher = weaker binding", "conditions": "reference: library average", "units": {"relative binding free energy": "kcal/mol"}, "values": [{"sequence": "GTTATCACGTGTTTGC", "relative binding free energy": 0.19}, {"sequence": "GTTGTCACGTGAGACT", "relative binding free energy": 0.22}, {"sequence": "TTTACCACGTGTTGGA", "relative binding free energy": -0.03}, {"sequence": "GTGTGCACGTGATTAA", "relative binding free energy": 0.16}, {"sequence": "GGTTACACGTGCACGG", "relative binding free energy": 0.22}, {"sequence": "GTTTACACGTGGAATT", "relative binding free energy": 0.2}, {"sequence": "ATCGTCACGTGTGGCG", "relative binding free energy": 0.04}, {"sequence": "GGAAGCACGTGTTTGT", "relative binding free energy": -0.06}, {"sequence": "TTAAACACGTGTGATG", "relative binding free energy": 0}, {"sequence": "GTTTGCACGTGAGAGC", "relative binding free energy": 0.22}, {"sequence": "TGTGGCACGTGCTGCG", "relative binding free energy": -0.25}, {"sequence": "CTAGTCACGTGGAGTA", "relative binding free energy": 0.04}, {"sequence": "TTGTGCACGTGTAAAA", "relative binding free energy": 0.1}, {"sequence": "GGCGACACGTGTTAGT", "relative binding free energy": 0.1}, {"sequence": "GGGGTCACGTGTTTAG", "relative binding free energy": 0.07}, {"sequence": "GTAAGCACGTGATTAT", "relative binding free energy": 0.08}, {"sequence": "TGATACACGTGCGGTG", "relative binding free energy": -0.05}, {"sequence": "AAGGGCACGTGGGAGC", "relative binding free energy": -0.13}, {"sequence": "AGGATCACGTGGGCGC", "relative binding free energy": 0.05}, {"sequence": "TTGGTCACGTGTTGGT", "relative binding free energy": 0.13}, {"sequence": "AAACACACGTGGTGTT", "relative binding free energy": -0.02}, {"sequence": "TAAGTCACGTGGGCGA", "relative binding free energy": -0.05}, {"sequence": "TGTGACACGTGTCATT", "relative binding free energy": -0.01}, {"sequence": "TATAACACGTGTTAAT", "relative binding free energy": 0}, {"sequence": "GGTTCCACGTGGTTGC", "relative binding free energy": 0.2}, {"sequence": "AATTTCACGTGTTGGC", "relative binding free energy": 0.3}, {"sequence": "ATGAACACGTGGGGGA", "relative binding free energy": -0.21}, {"sequence": "ACTTTCACGTGCTTGG", "relative binding free energy": 0.27}, {"sequence": "TAAGGCACGTGGGTCT", "relative binding free energy": -0.37}, {"sequence": "GGGATCACGTGTATGG", "relative binding free energy": 0.24}, {"sequence": "TGTTGCACGTGTGAAC", "relative binding free energy": 0.05}, {"sequence": "GTTGGCACGTGGTAAT", "relative binding free energy": 0.01}, {"sequence": "ACGTGCACGTGGGGAG", "relative binding free energy": -0.14}, {"sequence": "TGGTTCACGTGAGCAT", "relative binding free energy": 0.3}, {"sequence": "GGAGACACGTGTGGTT", "relative binding free energy": 0.17}, {"sequence": "AATTCCACGTGTGTTG", "relative binding free energy": 0.02}, {"sequence": "GTGGGCACGTGTTACT", "relative binding free energy": -0.03}, {"sequence": "TTTAGCACGTGTTCAA", "relative binding free energy": -0.14}, {"sequence": "GGATGCACGTGTTCGG", "relative binding free energy": -0.05}, {"sequence": "GTAGACACGTGGGGGT", "relative binding free energy": -0.08}, {"sequence": "GTTTACACGTGCAGTA", "relative binding free energy": 0.15}, {"sequence": "GAAGTCACGTGGGGGG", "relative binding free energy": 0.11}, {"sequence": "GCAGGCACGTGGAGTG", "relative binding free energy": -0.19}, {"sequence": "GCGTTCACGTGTGTGG", "relative binding free energy": 0.34}, {"sequence": "GGGGGCACGTGATGAG", "relative binding free energy": 0.07}, {"sequence": "ATGGTCACGTGGGGTC", "relative binding free energy": -0.01}, {"sequence": "GAATGCACGTGTGATT", "relative binding free energy": 0.16}, {"sequence": "GGGTTCACGTGATCTT", "relative binding free energy": 0.47}, {"sequence": "ATAGGCACGTGATGGG", "relative binding free energy": -0.09}, {"sequence": "CTTGTCACGTGCTGTA", "relative binding free energy": -0.01}, {"sequence": "GGTTTCACGTGGTCCT", "relative binding free energy": 0.3}, {"sequence": "TTTTGCACGTGCGTGC", "relative binding free energy": -0.1}, {"sequence": "TATATCACGTGGTAAG", "relative binding free energy": 0.21}, {"sequence": "TTTCTCACGTGGTTGG", "relative binding free energy": 0.17}, {"sequence": "TGTAGCACGTGCGAGG", "relative binding free energy": -0.03}, {"sequence": "GCTTGCACGTGGATAT", "relative binding free energy": 0.14}, {"sequence": "GGCGACACGTGTGGGT", "relative binding free energy": 0.16}, {"sequence": "TATGCCACGTGTTATT", "relative binding free energy": -0.08}, {"sequence": "AGGATCACGTGGGTAA", "relative binding free energy": 0.03}, {"sequence": "CGCTTCACGTGGAAGG", "relative binding free energy": 0.23}, {"sequence": "ATAGTCACGTGTCGAT", "relative binding free energy": 0.12}, {"sequence": "CCGGGCACGTGAGGGC", "relative binding free energy": 0.15}, {"sequence": "AGTGTCACGTGTGTGC", "relative binding free energy": 0.07}, {"sequence": "GGACGCACGTGGGAGA", "relative binding free energy": -0.1}, {"sequence": "TTTGCCACGTGTTTTG", "relative binding free energy": -0.14}, {"sequence": "TGGGTCACGTGGAATT", "relative binding free energy": 0.23}, {"sequence": "CATATCACGTGTGTTG", "relative binding free energy": 0.23}, {"sequence": "TTTAGCACGTGTGAAG", "relative binding free energy": 0.04}, {"sequence": "GTTGTCACGTGTGCTG", "relative binding free energy": 0.08}, {"sequence": "TGTGCCACGTGGATAG", "relative binding free energy": 0}, {"sequence": "CGTAGCACGTGGTTAG", "relative binding free energy": -0.05}, {"sequence": "TTCTGCACGTGGTCGG", "relative binding free energy": -0.1}, {"sequence": "GAAGACACGTGAGTTG", "relative binding free energy": 0.39}, {"sequence": "TGTGGCACGTGAGGCG", "relative binding free energy": 0.04}, {"sequence": "AGTCGCACGTGGGGAG", "relative binding free energy": -0.09}, {"sequence": "GAAAGCACGTGGTGGG", "relative binding free energy": -0.01}, {"sequence": "CATGGCACGTGGGAGG", "relative binding free energy": -0.17}, {"sequence": "TGAAACACGTGAGGTG", "relative binding free energy": 0.09}, {"sequence": "TTGCTCACGTGTATTA", "relative binding free energy": 0.32}, {"sequence": "AGTTTCACGTGAGGAG", "relative binding free energy": 0.46}, {"sequence": "TGATGCACGTGCAGTT", "relative binding free energy": 0.04}, {"sequence": "ATATGCACGTGGAAGA", "relative binding free energy": -0.03}, {"sequence": "GTCTGCACGTGTTGAT", "relative binding free energy": 0.03}, {"sequence": "TGACACACGTGGATTG", "relative binding free energy": 0.2}, {"sequence": "TTTTGCACGTGACGTC", "relative binding free energy": 0.17}, {"sequence": "TTAGGCACGTGAAAGG", "relative binding free energy": 0.04}, {"sequence": "TTTTGCACGTGGCGTG", "relative binding free energy": -0.01}, {"sequence": "TTAGACACGTGGGTGC", "relative binding free energy": -0.12}, {"sequence": "TTTTGCACGTGCTTAA", "relative binding free energy": 0.02}, {"sequence": "GTGTTCACGTGTGCAA", "relative binding free energy": 0.27}, {"sequence": "ATAGACACGTGTTAGT", "relative binding free energy": 0.08}, {"sequence": "TGATCCACGTGTGTGA", "relative binding free energy": 0.03}, {"sequence": "GAGGTCACGTGCGGAG", "relative binding free energy": 0.22}, {"sequence": "GGGGTCACGTGGAGGA", "relative binding free energy": 0.17}, {"sequence": "TGTTACACGTGTAGAG", "relative binding free energy": 0.21}, {"sequence": "TTGGTCACGTGCTGGT", "relative binding free energy": 0.13}, {"sequence": "TGGAGCACGTGAGGCT", "relative binding free energy": 0.02}, {"sequence": "TGTTACACGTGTTCAA", "relative binding free energy": 0.19}, {"sequence": "TGTTTCACGTGCTTTC", "relative binding free energy": 0.15}, {"sequence": "TTCGACACGTGAATGG", "relative binding free energy": 0.24}, {"sequence": "GGTTTCACGTGAGGGG", "relative binding free energy": 0.47}, {"sequence": "AGGGACACGTGGGGGA", "relative binding free energy": -0.18}, {"sequence": "GCAGGCACGTGGTTTG", "relative binding free energy": -0.12}, {"sequence": "TGTATCACGTGACAGT", "relative binding free energy": 0.06}, {"sequence": "GCAGGCACGTGGTTTA", "relative binding free energy": -0.23}, {"sequence": "AGTTGCACGTGTGTAT", "relative binding free energy": -0.02}, {"sequence": "AGTTACACGTGATGGT", "relative binding free energy": 0.15}, {"sequence": "ATGCCCACGTGTGGGT", "relative binding free energy": -0.2}, {"sequence": "CGTGCCACGTGTCGGG", "relative binding free energy": -0.04}, {"sequence": "TGGATCACGTGAAAGA", "relative binding free energy": 0.54}, {"sequence": "GGATACACGTGTTTTA", "relative binding free energy": 0.08}, {"sequence": "GGAATCACGTGAGGAG", "relative binding free energy": 0.2}, {"sequence": "CAATTCACGTGTTGGT", "relative binding free energy": 0.35}, {"sequence": "GGTAACACGTGAATAG", "relative binding free energy": 0.4}, {"sequence": "TAGTTCACGTGTTACG", "relative binding free energy": 0.35}]}]}
